The other results are listed elsewhere or left out. The source does not settle which construct or isoform was used.

The target of the assay is GST-SBP-ILF3 (Homo sapiens) (UniProt Q12906). Description: targeted RNA Bind-n-Seq. Conditions: RBNS binding buffer: 25 mM Tris pH 7.5, 150 mM KCl, 3 mM MgCl2, 0.1% Tween, 0.5 mg/mL BSA, 1 mM DTT; 27 nM protein, 750 pM RNA pool; temperature not stated; high values mean tight binding; sequences stand for … in GGGUAAAAGCGAGGUGAA…CGGGACAAGUAUUAUGGG
For “GUGUUGUGUGUUGGCAUCUAACACACAGCA [gtspaired]”, the binding signal (log2 fold change) is -0.566.
As for “UUUUUUUUUUGAGACUGGGCCAGUCUCCUA [tttttgagapaired]”, the figure is 0.494; as for “GGUUGGUGUGUUGGACUCUAACACAUCGAC [gtspaired]”, -0.665; as for “GGUUGGUGUGUUGGAAUCUAACACAUCAGC [gtspaired]”, -0.733.
As for “UUUUUUUUUUGAGACUGGUGCAGUCUCCUA [tttttgagapaired]”, the figure is 0.263; as for “UUUUUUUUUUGAGAACGAGCCGUUCUCCGG [tttttgagapaired]”, 0.0614.
As for “GUGUGUUGUGUUGGACUCUAACACAGCGCA [gtspaired]”, the binding signal (log2 fold change) was -0.648.
As for “GUUGGUGGUGUUGGCACCUAACACCACCGA [gtspaired]”, the figure is -0.175; as for “UUUUUUUUUUGAGACGGUAACCGUCUCCUA [tttttgagapaired]”, -0.0965; as for “UUUUUUUUUUGAGACCGAGGCGGUCUUCUG [tttttgagapaired]”, 0.669.
As for “UUCUCCUCUCCUCCGCUGGAGGGGGGGAGA [ctspaired]”, the figure is -0.00434; as for “GUGUGGUGUGUUGGCUUCUAACACAUCGCA [gtspaired]”, -0.749.
With “GGUUGUGGUGUUGGCUCCUAACACCGCGAC [gtspaired]” the figure was -0.83.
“UUUUUUUUUUGAGAGUGAAACACUCUUCUG [tttttgagapaired]”: the binding signal (log2 fold change) was -0.0344.
With “UUUUUUUUUUGAGACGGCUACCGUUUCCUG [tttttgagapaired]” the figure was 0.581.
As for “GUGUGUGGUGUUGGCAUCUAACACCAUAUA [gtspaired]”, the binding signal (log2 fold change) was -0.498.
As for “GGUUGGUGUGUUGGUCCCUAACACACCGAC [gtspaired]”, the figure is -0.109; as for “GGUUGGUGUGUUGGUGCCUAACACAUCAAC [gtspaired]”, -0.565.
Consider “GUGGUGUGUGUUGGUAUCUAACACACAUCG [gtspaired]”, for which the binding signal (log2 fold change) is -0.614.
As for “GGUGUGUGUGUUGGCAUCUAACACAUACGC [gtspaired]”, the figure is -0.524; as for “GGUUGUGGUGUUGGUCCCUAACACCGCGAC [gtspaired]”, -0.633.
With “UUUUUUUUUUGAGAGGGCAUCCCUCUCCAG [tttttgagapaired]” the figure was 0.647.
As for “GGUUGGUGUGUUGGAGCCUAACACAUCGAC [gtspaired]”, the figure is -0.448.
“UUUUUUUUUUGAGAGUGUUGCAUUCUCCAG [tttttgagapaired]”: the binding signal (log2 fold change) is 0.299.
With “GUUGUGUGUGUUGGAGUCUAACACACGCGA [gtspaired]” the figure was -0.763; with “UUUUUUUUUUGAGAGGGCACCCCUCUCCGG [tttttgagapaired]”, 0.45; with “UUUUUUUUUUGAGAACGUUUCGUUCUCCAG [tttttgagapaired]”, 0.21.
With “GGUUGGUGUGUUGGCGCCUAACACAUCAAC [gtspaired]” the figure was -0.331; with “GUUGUGUGUGUUGGAAUCUAACACACGCGA [gtspaired]”, -0.714.
With “UUUUUUUUUUGAGAGGGCUCCCCUCUCCAG [tttttgagapaired]” the figure was 0.602; with “GUGUGGUGUGUUGGUGCCUAACACACCGCA [gtspaired]”, -0.394; with “GUGUGGUGUGUUGGUGCCUAACACACUACG [gtspaired]”, -0.29.
On to “UUUUUUUUUUGAGACUGGAACAGUCUUCUG [tttttgagapaired]”, for which the binding signal (log2 fold change) was 0.246.
As for “UUUUUUUUUUGAGACCGAACCGGUUUCCUG [tttttgagapaired]”, the figure is 0.599; as for “GUGUUGUGUGUUGGUCUCUAACACACAACG [gtspaired]”, -0.923; as for “UUUUUUUUUUGAGACCGGGCCGGUCUCCUA [tttttgagapaired]”, 0.46.
With “GUGGUUGGUGUUGGCCCCUAACACCGACUA [gtspaired]” the figure was -0.385.
With “UUUUUUUUUUGAGACUGGGUCAGUUUCCGG [tttttgagapaired]” the figure was 0.749.
Take “UUUUUUUUUUGAGAUGGAUUCCGUCUCCUG [tttttgagapaired]”: the binding signal (log2 fold change) stood at 0.116.
With “UUUUUUUUUUGAGAGCGAAGCGUUCUCCGG [tttttgagapaired]” the figure was 0.206; with “GUGGUGUGUGUUGGCCUCUAACACAUACCA [gtspaired]”, -0.687.
As for “UUUUUUUUUUGAGAGCGUGACGUUCUCCUG [tttttgagapaired]”, the figure is 0.525; as for “UUUUUUUUUUGAGACGGCCACCGUCUCCUA [tttttgagapaired]”, 0.685.
With “UUUUUUUUUUGAGAGUGCAACAUUCUCCGG [tttttgagapaired]” the figure was 0.0454; with “UUUUUUUUUUGAGAUGGGGUCUAUCUCCUA [tttttgagapaired]”, 0.468.
In the case of “UUCCUUCUUCCUCCGUCGGAGGGAGAGGGA [ctspaired]”, the binding signal (log2 fold change) is -0.105.
With “UUUUUUUUUUGAGACUGGAUCAGUCUCCUG [tttttgagapaired]” the figure was 0.31.
With “UUUUUUUUUUGAGAAGGAUCCCUUCUCCAG [tttttgagapaired]” the figure was -0.0192; with “GUGUUGUGUGUUGGCGUCUAACACACAGCG [gtspaired]”, -0.568; with “GUUGGUGGUGUUGGAAUCUAACACCGCCAG [gtspaired]”, -0.257.
With “GUGUGUUGUGUUGGAUUCUAACACAACGCG [gtspaired]” the figure was -0.767; with “GGUGUUGGUGUUGGCCCCUAACACCAGCGC [gtspaired]”, -0.304.
Regarding “GGUGUUGGUGUUGGUCCCUAACACCGACGC [gtspaired]”, the binding signal (log2 fold change) was -0.0467.
With “GUGUGUGGUGUUGGUGUCUAACACCACGCG [gtspaired]” the figure was -0.606; with “UUUUUUUUUUGAGAGCGGGUCGUUCUUCUA [tttttgagapaired]”, 0.58.
With “UUUUUUUUUUGAGAGCGUAACGCUCUCCAG [tttttgagapaired]” the figure was 0.653; with “UUUUUUUUUUGAGACGGGAACCGUCUCCUA [tttttgagapaired]”, 0.366; with “UUUUUUUUUUGAGACUGGGCCAGUCUUCUA [tttttgagapaired]”, 0.408.
As for “UUUUUUUUUUGAGAACGGCACGUUCUCCAG [tttttgagapaired]”, the binding signal (log2 fold change) was found to be 0.112.
With “UUUUUUUUUUGAGAGCGACACGUUCUCCGG [tttttgagapaired]” the figure was 0.219; with “GUUGGUGGUGUUGGAGCCUAACACCAUCAA [gtspaired]”, -0.915; with “UUUUUUUUUUGAGAGGGCUCCCCUCUUCUG [tttttgagapaired]”, 0.614.
With “GUUGGUGGUGUUGGAGCCUAACACCGCCAG [gtspaired]” the figure was -0.47; with “UUUUUUUUUUGAGAUCGAAACGGUCUCCUG [tttttgagapaired]”, 0.255.
Regarding “UUUUUUUUUUGAGAGGGACGCCCUCUCCUG [tttttgagapaired]”, the binding signal (log2 fold change) was found to be 0.635.
Take “UUUUUUUUUUGAGAGCGGAGCGUUCUUCUA [tttttgagapaired]”: the binding signal (log2 fold change) turned out to be 0.421.

For the origin of these results see paper PMC5892938.
